Measured values: the supplement of paper PMC8728848
Some of the results follow.

Columns and labels:
Experiment in all cases: glycan array binding signal (z-score within array); higher = stronger binding
Conditions in all cases: glycan notation: IUPAC condensed, linker removed
[1] = molecular target: Gal(a1-3)Gal(b1-4)[Fuc(a1-3)]GalNAc
In short: (§1)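 From the Consortium for Functional Glycomics database, 3228 arrays were curated, keeping only those whose protein sequence was available. Binding is given as a within-array Z-score averaged across arrays sharing a protein sequence and across linkers. Negative Z-scores can be read as non-binding.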

[2] = molecular target: Gal(a1-3)Gal(b1-4)[Fuc(a1-3)]GlcNAc
In short: as §1

[3] = molecular target: Gal(a1-3)Gal(b1-4)[Fuc(a1-3)]GlcNAc(b1-2)Man(a1-3)[Gal(a1-3)Gal(b1-4)[Fuc(a1-3)]GlcNAc(b1-2)Man(a1-6)]Man(b1-4)GlcNAc(b1-4)GlcNAc
In short: as §1

[4] = molecular target: Gal(a1-3)GalNAc
In short: as §1

[5] = molecular target: Gal(a1-3)GlcNAc
In short: as §1

[6] = molecular target: Gal(a1-3)[Gal(a1-4)]Gal(b1-4)GlcNAc
In short: as §1

[7] = molecular target: Gal(a1-4)Gal(b1-3)GlcNAc(b1-2)Man(a1-3)[Gal(a1-4)Gal(b1-3)GlcNAc(b1-2)Man(a1-6)]Man(b1-4)GlcNAc(b1-4)GlcNAc
In short: as §1

[8] = molecular target: Gal(a1-4)Gal(b1-4)Gal
In short: as §1

[9] = molecular target: Gal(a1-4)Gal(b1-4)GalNAc
In short: as §1

[10] = molecular target: Gal(a1-4)Gal(b1-4)Glc
In short: as §1

[11] = molecular target: Gal(a1-4)Gal(b1-4)GlcNAc
In short: as §1

[12] = molecular target: Gal(a1-4)Gal(b1-4)GlcNAc(b1-2)Man(a1-3)[Gal(a1-4)Gal(b1-4)GlcNAc(b1-2)Man(a1-6)]Man(b1-4)GlcNAc(b1-4)GlcNAc
In short: as §1

[13] = molecular target: Gal(a1-4)Gal(b1-4)GlcNAc(b1-3)Gal(b1-4)Glc
In short: as §1

[14] = molecular target: Gal(a1-4)GlcNAc
In short: as §1

[15] = molecular target: Gal(a1-6)Glc
In short: as §1

[16] = molecular target: Gal(b1-2)Gal
In short: as §1

[17] = molecular target: Gal(b1-3)Gal
In short: as §1

[18] = molecular target: Gal(b1-3)Gal(b1-4)GlcNAc
In short: as §1

[19] = molecular target: Gal(b1-3)GalNAc
In short: as §1

[20] = molecular target: Gal(b1-3)GalNAc(a1-3)[Fuc(a1-2)]Gal(b1-4)Glc
In short: as §1

[21] = molecular target: Gal(b1-3)GalNAc(a1-3)[Fuc(a1-2)]Gal(b1-4)GlcNAc
In short: as §1

[22] = molecular target: Gal(b1-3)GalNAc(b1-3)Gal
In short: as §1

[23] = molecular target: Gal(b1-3)GalNAc(b1-3)Gal(a1-4)Gal(b1-4)Glc
In short: as §1

[24] = molecular target: Gal(b1-3)GalNAc(b1-3)Gal(b1-4)Glc
In short: as §1

[25] = molecular target: Gal(b1-3)GalNAc(b1-3)Gal(b1-4)GlcNAc
In short: as §1

[26] = molecular target: Gal(b1-3)GalNAc(b1-4)Gal(b1-4)Glc
In short: as §1

[27] = molecular target: Gal(b1-3)GalNAc(b1-4)[Neu5Ac(a2-3)]Gal(b1-4)Glc
In short: as §1

[28] = molecular target: Gal(b1-3)GlcNAc
In short: as §1

[29] = molecular target: Gal(b1-3)GlcNAc(a1-3)Gal(b1-4)GlcNAc
In short: as §1

[30] = molecular target: Gal(b1-3)GlcNAc(a1-6)Gal(b1-4)GlcNAc
In short: as §1

[31] = molecular target: Gal(b1-3)GlcNAc(b1-2)Man
In short: as §1

[32] = molecular target: Gal(b1-3)GlcNAc(b1-2)Man(a1-3)[Gal(b1-3)GlcNAc(b1-2)Man(a1-6)]Man(b1-4)GlcNAc(b1-4)GlcNAc
In short: as §1

[33] = molecular target: Gal(b1-3)GlcNAc(b1-2)Man(a1-3)[Gal(b1-3)GlcNAc(b1-2)Man(a1-6)]Man(b1-4)GlcNAc(b1-4)[Fuc(a1-6)]GlcNAc
In short: as §1

[34] = molecular target: Gal(b1-3)GlcNAc(b1-2)Man(a1-3)[GlcNAc(b1-4)][Gal(b1-3)GlcNAc(b1-2)Man(a1-6)]Man(b1-4)GlcNAc(b1-4)GlcNAc
In short: as §1

[35] = molecular target: Gal(b1-3)GlcNAc(b1-2)[Gal(b1-3)GlcNAc(b1-6)]Man(a1-6)[Gal(b1-3)GlcNAc(b1-2)Man(a1-3)]Man(b1-4)GlcNAc(b1-4)GlcNAc
In short: as §1

[36] = molecular target: Gal(b1-3)GlcNAc(b1-3)Gal(b1-3)GlcNAc
In short: as §1

[37] = molecular target: Gal(b1-3)GlcNAc(b1-3)Gal(b1-4)Glc
In short: as §1

B1: UEA-I (Ulex europaeus), P22972 (protein)
chain: SDDLSFKFKNFSQNGKDLSFQGDASVIETGVLQLNKVGNNLPDETGGIARYIAPIHIWNCNTGEVASFITSFSFFMETSANPKAATDGLTFFLAPPDSPLRRAGGYFGLFEDTKDNDSSYQTVAVEFDTIGSPVNFDDPGFPHIGIDVNRVKSINAERWNKRYGLNNVANVEIIYEASSKTLTASLTYPSDQTSISVTSIVDLKEILPEWVSVGFSGGTYIGRQATHEVLNWYFTSNLINTNS
glycan array binding signal (z-score) [1]: -0.621
glycan array binding signal (z-score) [2]: -0.222
glycan array binding signal (z-score) [3]: -0.136
glycan array binding signal (z-score) [4]: -0.177
glycan array binding signal (z-score) [5]: -0.568
glycan array binding signal (z-score) [6]: -0.184
glycan array binding signal (z-score) [7]: -0.16
glycan array binding signal (z-score) [8]: -0.37
glycan array binding signal (z-score) [9]: -0.556
glycan array binding signal (z-score) [10]: -0.134
glycan array binding signal (z-score) [11]: -0.149
glycan array binding signal (z-score) [12]: 0.015
glycan array binding signal (z-score) [13]: -0.195
glycan array binding signal (z-score) [14]: -0.168
glycan array binding signal (z-score) [15]: -0.181
glycan array binding signal (z-score) [16]: -0.201
glycan array binding signal (z-score) [17]: -0.209
glycan array binding signal (z-score) [18]: -0.119
glycan array binding signal (z-score) [19]: -0.15
glycan array binding signal (z-score) [20]: -0.204
glycan array binding signal (z-score) [21]: -0.231
glycan array binding signal (z-score) [22]: -0.216
glycan array binding signal (z-score) [23]: -0.174
glycan array binding signal (z-score) [24]: -0.373
glycan array binding signal (z-score) [25]: -0.42
glycan array binding signal (z-score) [26]: -0.113
glycan array binding signal (z-score) [27]: -0.207
glycan array binding signal (z-score) [28]: -0.179
glycan array binding signal (z-score) [29]: -0.286
glycan array binding signal (z-score) [30]: -0.139
glycan array binding signal (z-score) [31]: -0.121
glycan array binding signal (z-score) [32]: -0.101
glycan array binding signal (z-score) [33]: -0.16
glycan array binding signal (z-score) [34]: -0.116
glycan array binding signal (z-score) [35]: -0.2
glycan array binding signal (z-score) [36]: -0.159
glycan array binding signal (z-score) [37]: -0.198
